Laboratory results from the supplement of paper PMC7826260.
The other results are listed elsewhere or left out. Each Rep nickase domain was tested in vitro on the same pool of single strands at 3 µM enzyme and 37 °C for 1 h; the strands have 90 letters, of which the middle is given. Values are log2 of uncut reads against the no-enzyme pool; strong cutting gives strongly negative numbers. There is no active / inactive call. Counts are relative to all reads, so uncut sequences can rise above 0 when many others are cut.

Experiments:
Assay in all cases: uncleaved DNA left, log2 of reads against the no-enzyme library (log2 ratio); higher = less cleavage (more negative = more Rep cleavage of the k-mer); sequences stand for … in CTCGTCCG…ACCGGAGA
[1] = test system: T1, Rep nickase domain of Muscovy duck circovirus
T1 sequence (protein, residues 1-111, tag omitted): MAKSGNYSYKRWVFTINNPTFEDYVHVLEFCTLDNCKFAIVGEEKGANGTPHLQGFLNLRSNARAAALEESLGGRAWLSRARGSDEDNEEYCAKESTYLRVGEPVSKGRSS
Method: (§1)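 A pool of 90-nt single-stranded DNAs with seven random bases just before the constant AC of the nick site (name = the seven bases) was cut by 3 µM recombinant His6-SUMO-tagged Rep nickase domain (300 nM DNA, 50 mM HEPES pH 8.0, 50 mM NaCl, 1 mM MnCl2, 1 h, 37 °C, three replicates). Uncut DNA was amplified and sequenced.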

[2] = test system: T2, Rep nickase domain of banana bunchy top virus
T2 sequence (protein, residues 1-94, tag omitted): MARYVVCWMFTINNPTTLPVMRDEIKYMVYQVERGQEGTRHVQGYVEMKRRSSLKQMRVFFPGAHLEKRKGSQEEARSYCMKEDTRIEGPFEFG
Method: as §1

[3] = test system: T3, Rep nickase domain of cabbage leaf curl virus
T3 sequence (protein, residues 1-116, tag omitted): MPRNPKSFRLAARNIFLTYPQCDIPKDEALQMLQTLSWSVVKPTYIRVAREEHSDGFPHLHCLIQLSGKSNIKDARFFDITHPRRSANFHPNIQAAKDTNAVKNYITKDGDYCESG
Method: as §1

[4] = test system: T4, Rep nickase domain of chickpea chlorotic dwarf virus
T4 sequence (protein, residues 1-124, tag omitted): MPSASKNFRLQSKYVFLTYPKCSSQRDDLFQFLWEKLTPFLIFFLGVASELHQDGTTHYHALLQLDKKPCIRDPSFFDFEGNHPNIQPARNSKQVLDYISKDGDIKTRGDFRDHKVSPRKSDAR
Method: as §1

[5] = test system: T5, Rep nickase domain of faba bean necrotic yellows virus
T5 sequence (protein, residues 1-98, tag omitted): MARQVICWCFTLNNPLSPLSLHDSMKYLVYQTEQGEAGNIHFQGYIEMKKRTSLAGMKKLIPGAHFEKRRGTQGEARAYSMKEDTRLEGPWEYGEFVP
Method: as §1

[6] = test system: T6, Rep nickase domain of maize striate mosaic virus
T6 sequence (protein, residues 1-117, tag omitted): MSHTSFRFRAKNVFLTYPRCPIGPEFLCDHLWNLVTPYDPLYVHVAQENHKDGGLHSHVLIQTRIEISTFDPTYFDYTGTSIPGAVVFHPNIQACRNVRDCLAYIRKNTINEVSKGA
Method: as §1

[7] = test system: T7, Rep nickase domain of porcine circovirus 2
T7 sequence (protein, residues 2-116, tag omitted): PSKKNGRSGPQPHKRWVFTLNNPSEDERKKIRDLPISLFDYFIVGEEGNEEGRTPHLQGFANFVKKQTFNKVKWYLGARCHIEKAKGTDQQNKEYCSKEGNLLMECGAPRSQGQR
Method: as §1

[8] = test system: T8, Rep nickase domain of tomato golden mosaic virus
T8 sequence (protein, residues 1-124, tag omitted): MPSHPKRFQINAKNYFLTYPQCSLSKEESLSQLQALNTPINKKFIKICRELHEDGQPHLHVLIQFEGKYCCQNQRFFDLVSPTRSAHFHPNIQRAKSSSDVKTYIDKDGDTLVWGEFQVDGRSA
Method: as §1

[9] = test system: T9, Rep nickase domain of tomato yellow leaf curl virus
T9 sequence (protein, residues 1-136, tag omitted): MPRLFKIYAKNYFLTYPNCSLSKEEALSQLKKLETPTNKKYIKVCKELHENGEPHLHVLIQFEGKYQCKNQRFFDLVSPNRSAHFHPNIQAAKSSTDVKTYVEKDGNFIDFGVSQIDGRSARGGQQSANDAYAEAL
Method: as §1

[10] = test system: T10, Rep nickase domain of wheat dwarf virus
T10 sequence (protein, residues 1-137, tag omitted): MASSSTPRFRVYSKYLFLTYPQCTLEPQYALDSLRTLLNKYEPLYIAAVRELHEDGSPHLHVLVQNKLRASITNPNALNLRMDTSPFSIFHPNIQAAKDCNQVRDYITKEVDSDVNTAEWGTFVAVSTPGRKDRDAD
Method: as §1

Row | Sequence | uncleaved DNA left (log2) [1] | uncleaved DNA left (log2) [2] | uncleaved DNA left (log2) [3] | uncleaved DNA left (log2) [4] | uncleaved DNA left (log2) [5] | uncleaved DNA left (log2) [6] | uncleaved DNA left (log2) [7] | uncleaved DNA left (log2) [8] | uncleaved DNA left (log2) [9] | uncleaved DNA left (log2) [10]
1 | TTGAGAT | -0.0174 | -0.0514 | 0.083 | 0.895 | -0.0764 | 0.792 | 0.168 | -0.011 | -0.0596 | 0.123
2 | ACCTCAT | 0.0784 | 0.0672 | 0.045 | -0.158 | -0.000217 | 0.0821 | -0.193 | 0.0911 | -0.204 | -0.00649
3 | GTGTGGC | -0.0773 | -0.00247 | 0.244 | 0.781 | -0.162 | 1.57 | 0.0122 | 0.0274 | -0.0811 | -0.03
4 | GGGCAAG | 0.0693 | 0.139 | 0.716 | 1.97 | 0.00702 | 2.07 | 0.204 | 0.0899 | 0.0559 | 0.137
5 | CTAATAT | -0.0231 | 0.0534 | 0.256 | -1.09 | 0.0486 | -0.647 | 0.121 | -0.0232 | 0.0867 | 0.0558
6 | GGATGTC | 0.0677 | 0.224 | 0.706 | 1.41 | 0.127 | 1.94 | 0.188 | 0.0796 | 0.071 | 0.153
7 | TGTCATC | 0.0994 | 0.188 | 0.466 | 0.807 | 0.213 | 0.983 | 0.13 | 0.0815 | 0.135 | 0.138
8 | TAGTCAA | 0.00142 | 0.00299 | 0.189 | -0.248 | -0.00764 | 0.0199 | -2.49 | 0.0945 | 0.157 | 0.0715
9 | ATTAAAG | 0.132 | 0.00602 | -0.679 | -0.449 | 0.129 | -1.19 | 0.262 | 0.0631 | 0.0973 | 0.00235
10 | GGCCCAC | 0.137 | 0.0944 | 0.503 | 1.18 | 0.0492 | 1.78 | 0.0906 | 0.123 | 0.1 | 0.242
11 | CGCCGTG | -0.224 | 0.0141 | -0.274 | -0.456 | -0.0287 | -0.568 | 0.00946 | -0.142 | 0.0492 | -0.161
12 | TACTCTA | -0.779 | -0.13 | -0.282 | -2.69 | -0.0645 | -0.413 | -2.78 | 0.0301 | 0.02 | -0.102
13 | TACAGCT | -0.0302 | -0.0565 | -1.25 | -2.6 | -0.0564 | -1.09 | -0.639 | -0.039 | 0.00149 | -0.118
14 | CGACACT | -0.000672 | -0.113 | -0.0456 | -0.618 | -0.158 | 0.44 | -0.158 | -0.129 | -0.0709 | 0.033
15 | GCGTATC | 0.0385 | 0.0989 | 0.229 | 0.431 | -0.0827 | 0.268 | -0.00317 | -0.0844 | 0.00383 | 0.0199
16 | TTCACTT | -0.159 | -0.104 | -0.0981 | -2.19 | -0.131 | -0.135 | -0.528 | 0.0188 | 0.06 | -0.129
17 | ACAAATA | 0.0697 | 0.104 | -0.0903 | -1.44 | 0.185 | -0.638 | 0.147 | 0.133 | -0.0694 | 0.117
18 | CATCTGA | 0.0284 | 0.0141 | -0.0392 | 0.0428 | 0.0811 | -0.218 | -0.0493 | -0.0904 | -0.00447 | 0.031
19 | AGGGTAT | 0.0683 | 0.0999 | 0.279 | 1.63 | 0.0423 | 1.85 | 0.167 | 0.165 | -0.0934 | 0.0313
20 | TCTGTGT | 0.0793 | -0.144 | -0.259 | -0.749 | 0.0839 | -1.07 | 0.0631 | -0.0427 | -0.0842 | -0.201
21 | GAGCACT | -0.0621 | -0.0741 | -0.00977 | 0.245 | -0.0366 | 1.42 | -1.12 | -0.113 | -0.0436 | 0.0485
22 | ACTTTCT | -0.643 | -0.119 | -0.469 | -2.53 | 0.0518 | -0.852 | -2.05 | -0.0103 | -0.0673 | -0.129
23 | GTGGCTA | 0.00475 | -0.127 | 0.351 | 1.05 | 0.0173 | 1.82 | 0.0247 | 0.0619 | 0.00211 | 0.00419
24 | TCCTGGT | -0.206 | 0.0373 | 0.145 | -0.0079 | -0.0873 | 0.478 | -1.69 | -0.00237 | 0.00868 | 0.00417
25 | ACAACCT | -0.0772 | 0.0585 | -0.275 | -2.08 | 0.043 | -0.396 | -0.254 | -0.00895 | -0.0778 | -0.0162
26 | CAAACAG | 0.169 | 0.177 | -0.67 | -0.603 | 0.145 | -0.993 | 0.28 | 0.0873 | 0.138 | 0.0245
27 | CATAGGA | -0.0313 | -0.0375 | 0.0499 | 0.275 | -0.00391 | -0.573 | 0.0745 | -0.0217 | -0.12 | -0.061
28 | ATGCTGT | 0.0576 | -0.0254 | 0.0773 | 0.94 | -0.0348 | 0.874 | -0.0329 | 0.025 | -0.0556 | -0.107
29 | ATCTCTA | -0.0405 | 0.0338 | -0.168 | -0.897 | 0.11 | -0.184 | -0.191 | 0.112 | 0.00577 | 0.0144
30 | CCACTTT | 0.0885 | -0.00308 | -0.346 | -2.55 | 0.0875 | -0.906 | -0.42 | -0.0369 | -0.0208 | -0.234
